Test [1] deals with CD40-Fc (human) (UniProt P25942). Put plainly: flow cytometry of T cells co-electroporated with 15 µg diabody mRNA and 2 µg M12 CAR mRNA; CD40-Fc + PE-anti-Fc; E1 without mRNA: 0.56.
For test [2] the target is unchanged. The experiment in a line: flow cytometry of T cells co-electroporated with 15 µg diabody mRNA and 0.5 µg 4D5.BBZ mRNA; CD40-Fc + PE-anti-IgG-Fc; E1 without mRNA: 0.27. Background: In flow cytometry, cells or beads pass a laser one at a time.

B1: 1412-4D11 (bispecific antibody, from a related filing)
chain: QVQLVQSGAEVKKPGASVKVSCKASGYTFTSYYIHWVRQAPGQGLEWIGCIYPGNVNTNYNEKFKDRATLTVDTSISTAYMELSRLRSDDTAVYFCTRSHYGLDWNFDVWGQGTTVTVSSVEGGSGGSGGSGGSGGVMD[omitted - about 100 residues]GGGGSQLQLQESGPGLLKPSETLSLTCTVSGGSISSPGYYGGWIRQPPGKGLEWIGSIYKSGSTYHNPSLKSRVTISVDTSKNQFSLKLSSVTAADTAVYYCTRPVVRYFGWFDPWGQGTLVTVSSASGGGGSGGGGSGGGGSAIQLTQSPSSLSASVGDRVTITCRASQGISSALAWYQQKPGKAPKLLIYDASNLESGVPSRFSGSGSGTDFTLTISSLQPEDFATYYCQQFNSYPTFGQGTKVEIKRT
For the molecule B1, the % of cells in the positive gate in test [1] came out at 98.9; in test [2], 99.2.

Values taken from patent publication US20250381223A1.
